# Experimental data from PubChem BioAssay (Tox21).
# Several values for one entry are separate records, joined by “and”; a condition that tells them apart may be missing. Equal entries are not always repeated. Inconclusive means that the source gave no clear call. Such entries were picked first, then a sample of the others. Potencies beside an inconclusive call are fits to weak or partial responses and may not hold up. Activity calls are given as the source filed them. Unless noted, the call rests on the fitted dose curve; in most records, active means well fitted curve in the direction sought with a large enough effect in the repeat runs; inconclusive means weak or mixed curves; inactive means no such curve, though single readings can be large; an effect the other way counts as inactive or inconclusive.
# Key:
# [1] = target: Glucocorticoid receptor (Homo sapiens) (UniProt P04150); assay: qHTS assay to identify small molecule agonists of the glucocorticoid receptor (GR) signaling pathway (AID 720691; active means well fitted activation curve with a large enough effect in the signal ratio in the repeat runs, not every such curve was filed as active; inconclusive means weak or mixed curves, or effect the other way; inactive means no such curve, though single readings can be large or run the other way; the % refers to the signal ratio); settings: GR-bla HeLa, beta-lactamase reporter ratio, 18 h; activation: at 62.4 µM (top of the series) unless noted
# How it was run: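 Fluorescence intensity from LiveBLAzer B/G FRET substrate (2 h, room temperature) reports beta-lactamase expression driven by the glucocorticoid response element in GR-bla HeLa cells after 18 h compound exposure at 37 C.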
# [2] = target: Glucocorticoid receptor (Homo sapiens) (UniProt P04150); assay: qHTS assay to identify small molecule antagonists of the glucocorticoid receptor (GR) signaling pathway (AID 720692; active means well fitted inhibition curve with a large enough effect in the signal ratio in the repeat runs, not every such curve was filed as active; inconclusive means weak or mixed curves, or effect the other way; inactive means no such curve, though single readings can be large or run the other way; the % refers to the signal ratio); settings: GR-bla HeLa, beta-lactamase FRET ratio, dexamethasone-stimulated, 18 h
# How it was run: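 HeLa GR-bla cells; cmpd + dex 5 nM final, 18 h 37 C; LiveBLAzer B/G FRET substrate 2 h RT; fluorescence intensity read. Antagonist mode, qHTS.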
# [3] = qHTS assay for identifying genotoxic compounds that show differential cytotoxicity against isogenic chicken DT40 cell lines with known DNA damage response pathways - wild type cell line (AID 743012); settings: DT40 wild type chicken cells viability, CellTiter-Glo, 40 h; activity change, negative = cytotoxicity: at 68.4 µM (top of the series) unless noted; further: nearly all actives have a fitted effect of over 60% in size
# How it was run: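 Wild type DT40, 300 cells/well, ~0.5 h settle at 37 C/5% CO2; compounds in DMSO added by pintool; 40 h at 37 C/5% CO2; CellTiter-Glo, 30 min RT; luminescence.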
# [4] = qHTS assay for identifying genotoxic compounds that show differential cytotoxicity against isogenic chicken DT40 cell lines with known DNA damage response pathways - Rev3 mutant cell line (AID 743014); settings: chicken DT40 Rev3-/- viability, CellTiter-Glo, 40 h; activity, negative = cytotoxicity: at 68.4 µM (top of the series) unless noted; further: nearly all actives have a fitted effect of over 55% in size
# [5] = qHTS assay for identifying genotoxic compounds that show differential cytotoxicity against isogenic chicken DT40 cell lines with known DNA damage response pathways - Rad54/Ku70 mutant cell line (AID 743015); settings: DT40 Rad54/Ku70 mutant viability, CellTiter-Glo, 40 h; activity change, negative = cytotoxicity: at 66.8 µM (top of the series); further: nearly all actives have a fitted effect of over 60% in size
# [6] = qHTS assay to identify small molecule antagonists of the androgen receptor (AR) signaling pathway - cell viability counter screen (AID 743033; further: nearly all actives have a fitted effect of over 45% in size); settings: AR-bla HEK293 viability, CellTiter-Glo luminescence, 16 h; activity change, negative = cytotoxicity: at 58.5 µM (top of the series) unless noted
# [7] = qHTS assay to identify small molecule antagonists of the glucocorticoid receptor (GR) signaling pathway - cell viability counter screen (AID 720693); settings: GR-bla HeLa viability, CellTiter-Glo luminescence, 18 h, with 5 nM dexamethasone present; viability change, negative = cytotoxic: at 58.5 µM (top of the series) unless noted; further: nearly all actives have a fitted effect of over 55% in size
# [8] = target: Androgen receptor (Homo sapiens) (UniProt P10275); assay: qHTS assay to identify small molecule antagonists of the androgen receptor (AR) signaling pathway (AID 743035; active means well fitted inhibition curve with a large enough effect in the signal ratio in the repeat runs, not every such curve was filed as active; inconclusive means weak or mixed curves, or effect the other way; inactive means no such curve, though single readings can be large or run the other way; the % refers to the signal ratio); settings: HEK293 AR-UAS-bla, R1881-stimulated, beta-lactamase FRET, 16 h; activity change, negative = inhibition: at 58.5 µM (top of the series) unless noted
# How it was run: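 Fluorescence from a beta-lactamase FRET substrate (LiveBLAzer B/G, 2 h, room temperature) measured inhibition of R1881-stimulated signaling in GeneBLAzer AR-UAS-bla HEK293 cells exposed to compound for 16 h at 37C.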
# [9] = activity change, negative = inhibition: at 58.5 µM (top of the series) unless noted
# On the % scale 0 is the no-effect control and ±100 the full control effect; potency means the concentration at half of the fitted maximal effect; tags describe the fitted curve by direction and shape or compound fluorescence and quenching.
# Sequence of UniProt P10275 (P10275 whole entry, looked up): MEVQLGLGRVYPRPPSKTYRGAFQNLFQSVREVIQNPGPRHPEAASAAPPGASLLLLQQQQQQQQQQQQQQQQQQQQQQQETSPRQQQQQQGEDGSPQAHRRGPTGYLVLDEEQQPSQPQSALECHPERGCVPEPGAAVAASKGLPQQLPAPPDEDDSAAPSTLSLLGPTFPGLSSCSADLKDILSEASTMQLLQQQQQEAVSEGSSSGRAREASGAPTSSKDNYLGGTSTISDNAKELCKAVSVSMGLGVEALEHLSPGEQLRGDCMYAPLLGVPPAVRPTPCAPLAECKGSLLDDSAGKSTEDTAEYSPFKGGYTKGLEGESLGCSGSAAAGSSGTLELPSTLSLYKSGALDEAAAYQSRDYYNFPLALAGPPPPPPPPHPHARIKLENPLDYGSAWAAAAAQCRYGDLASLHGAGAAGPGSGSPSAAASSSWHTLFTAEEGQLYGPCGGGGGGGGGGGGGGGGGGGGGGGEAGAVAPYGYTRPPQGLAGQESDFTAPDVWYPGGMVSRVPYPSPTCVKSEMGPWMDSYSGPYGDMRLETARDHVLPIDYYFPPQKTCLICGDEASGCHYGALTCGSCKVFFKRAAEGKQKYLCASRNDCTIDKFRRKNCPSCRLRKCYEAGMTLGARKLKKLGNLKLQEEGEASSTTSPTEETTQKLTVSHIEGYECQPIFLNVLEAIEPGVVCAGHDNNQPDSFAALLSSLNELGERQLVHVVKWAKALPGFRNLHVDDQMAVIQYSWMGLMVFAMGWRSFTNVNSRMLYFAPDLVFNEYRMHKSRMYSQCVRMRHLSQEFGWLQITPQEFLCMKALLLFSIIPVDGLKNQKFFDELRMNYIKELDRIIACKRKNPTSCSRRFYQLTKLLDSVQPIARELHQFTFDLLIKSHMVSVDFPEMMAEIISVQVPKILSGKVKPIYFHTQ
# Sequence of UniProt P04150 (P04150 whole entry, looked up): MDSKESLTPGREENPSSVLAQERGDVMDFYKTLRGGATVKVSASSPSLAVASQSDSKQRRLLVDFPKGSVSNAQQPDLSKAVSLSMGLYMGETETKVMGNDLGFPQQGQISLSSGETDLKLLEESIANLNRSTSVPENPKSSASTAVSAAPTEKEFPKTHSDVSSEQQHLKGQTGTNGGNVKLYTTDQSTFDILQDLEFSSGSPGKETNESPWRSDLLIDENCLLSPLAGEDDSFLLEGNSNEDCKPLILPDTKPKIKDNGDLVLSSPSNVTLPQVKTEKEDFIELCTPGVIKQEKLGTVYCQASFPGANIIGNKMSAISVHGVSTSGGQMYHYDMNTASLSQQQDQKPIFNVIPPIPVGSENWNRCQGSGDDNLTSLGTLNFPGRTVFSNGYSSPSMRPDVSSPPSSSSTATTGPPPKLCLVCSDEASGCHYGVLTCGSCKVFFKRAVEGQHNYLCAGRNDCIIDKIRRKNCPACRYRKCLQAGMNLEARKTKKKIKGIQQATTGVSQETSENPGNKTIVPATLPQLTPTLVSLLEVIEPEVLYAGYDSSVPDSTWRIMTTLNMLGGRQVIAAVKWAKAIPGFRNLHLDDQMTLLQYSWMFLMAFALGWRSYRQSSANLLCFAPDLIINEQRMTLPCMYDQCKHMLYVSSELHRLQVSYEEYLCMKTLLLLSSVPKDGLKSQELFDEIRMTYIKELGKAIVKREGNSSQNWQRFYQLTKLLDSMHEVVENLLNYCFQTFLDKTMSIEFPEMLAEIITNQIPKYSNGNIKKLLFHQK
compound,measurement,setting,value
O=C(N[C@@H](Cc1ccccc1)[C@@H](O)C(=O)N1C[C@@H](O)[C@@H](O)C1)c1cc2cc(Cl)ccc2[nH]1,activation,[1],inconclusive: -12%
same,Potency,[2]; [9],inconclusive: 61.6 µM
same,Potency,[3],"inconclusive: 68.6 µM [cytotoxic, single point]"
same,Potency,[4],"inconclusive: 68.6 µM [cytotoxic, single point]"
same,Potency,[5],inconclusive: 68.6 µM [cytotoxic]
same,Potency,[6],"inconclusive: 43.6 µM [cytotoxic, partial curve, poor fit]"
NC(N)=NC(=O)c1nc(Cl)c(N)nc1N,Potency,[1],inactive
same,Potency,[2]; [9],inconclusive: 26.8 µM [cytotoxic]
same,"activity change, negative = inhibition",[2]; [9],inconclusive: 27.1% [at 78.9 µM]
same,"activity change, negative = inhibition",[2]; at 58.5 µM (top of the series),inactive: 12.7%
same,Potency,[3],inactive
same,Potency,[4],"inconclusive: 23.7 µM [rising, partial curve, poor fit]"
CCCCCOC(=O)c1ccc(O)cc1,Potency,[1],inactive
same,"activity change, negative = inhibition",[2]; [9],inconclusive: -21.4% [at 78.9 µM]
same,Potency,[3],"inconclusive: 69.4 µM [cytotoxic, single point]"
same,Potency,[4],"inconclusive: 77.9 µM [cytotoxic, single point]"
same,Potency,[5],active: 61.9 µM
Cc1nc(C)c(C)nc1C,Potency,[1],inactive
same,Potency,[2]; [9],inactive
same,"activity change, negative = cytotoxicity",[3],inconclusive: 30.7%
same,"activity change, negative = cytotoxicity",[5],inconclusive: -7.03%
Cc1ccc(Nc2nccc(N(C)c3ccc4c(C)n(C)nc4c3)n2)cc1S(N)(=O)=O,Potency,[1],inconclusive: 26.8 µM [cytotoxic]
same,"activity change, negative = inhibition",[2]; [9],inconclusive: 14.9%
same,Potency,[7],"inconclusive: 6.01 µM [cytotoxic, full curve]"
same,Potency,[4],active: 11.9 µM
same,Potency,[8],"inconclusive: 1.9 µM [rising, full curve, poor fit]"
C[C@H]1O[C@H](O[C@H]2[C@H](O)[C@@H](O)[C@@H](O[C@H]3[C@H](O)[C@@H](O)[C@H](O)O[C@@H]3CO)O[C@@H]2CO)[C@H](O)[C@@H](O)[C@@H]1N[C@H]1C=C(CO)[C@@H](O)[C@H](O)[C@H]1O,Potency,[1],"inconclusive: 8.49 µM [rising, partial curve]"
same,Potency,[2]; [9],inactive
same,Potency,[7],"inconclusive: 10.7 µM [rising, single point]"
COc1ccc(C(=O)Nc2nc3ccccc3c(NCc3ccccc3)c2C#N)cc1,Potency,[1],inconclusive: 54.9 µM
same,Potency,[2]; [9],"inconclusive: 54.9 µM [cytotoxic, single point]"
same,Potency,[7],inactive
same,Potency,[3],active: 27.3 µM
same,Potency,[5],active: 15.4 µM
CC(C)C[C@H](NC(=O)[C@H](Cc1ccccc1)NC(=O)c1cnccn1)B(O)O,Potency,[1],"inconclusive: 0.0095 µM [rising, full curve, poor fit]"
same,Potency,[2]; [9],"inconclusive: 16.9 nM [activator, full curve] and inconclusive: 7.6 nM [activator, full curve]"
same,Potency,[7],"inconclusive: 6.01 µM [cytotoxic, full curve] and inconclusive: 2.68 µM [cytotoxic, full curve]"
same,Potency,[6],"inconclusive: 84.9 nM [cytotoxic, full curve, poor fit] and active: 7.6 nM"
O=C(NS(=O)(=O)/C=C/c1cccs1)c1ccc(F)cc1Br,activation,[1],inconclusive: 3.98% [phenotype inactive]
same,"activity change, negative = inhibition",[2]; [9],inconclusive: 22.6%
same,Potency,[5],inactive
same,Potency,[8],"inconclusive: 1.23 µM [rising, full curve]"
CCCOc1ccccc1-c1nc2n[nH]nc2c(=O)[nH]1,Potency,[1],inactive
same,Potency,[4],inconclusive: 26.6 µM [cytotoxic]
same,Potency,[5],"inconclusive: 29.8 µM [cytotoxic, partial curve, poor fit]"
OCC(O)CS (stereo unspecified),activation,[1],inconclusive: -2.55% [phenotype inactive] [at 79.2 µM]
same,"activity change, negative = inhibition",[2]; [9],inconclusive: -0.0747%
same,Potency,[8],inactive
Cc1ccc(N)cc1[N+](=O)[O-],Potency,[2]; [9],inactive
O=C(c1ccc(O)cc1)c1ccc(O)cc1,Potency,[1],inactive
same,Potency,[8],inconclusive: 12.3 µM
C#C[C@]1(O)CC[C@H]2[C@@H]3CCC4=CC(=O)CC[C@@H]4[C@H]3CC[C@@]21C,activation,[1],inconclusive: -13.4%
same,Potency,[5],inconclusive: 33.5 µM [cytotoxic]
CCOC(=O)[C@@H](C)Oc1ccc(Oc2nc3ccc(Cl)cc3o2)cc1,Potency,[1],inactive
same,"activity change, negative = inhibition",[2]; [9],inconclusive: -51%
same,Potency,[4],"inconclusive: 10.9 µM [cytotoxic, partial curve]"
same,Potency,[5],active: 61.1 µM
same,Potency,[8],"inconclusive: 54.9 µM [falling, single point]"
C/C=C/c1ccc(OCC)c(O)c1,Potency,[1],inactive
same,Potency,[4],inactive
same,Potency,[6],inactive
